Measurements taken from the supplement of paper PMC4967469.

What was measured:
Assay in all cases: Viability of human cancer cell lines after 72 h of drug (GDSC screen)
[1] = compound: C=C(c1ccc(C(=O)O)cc1)c1cc2c(cc1C)C(C)(C)CCC2(C)C [Bexarotene]; conditions: top dose 8 µM
Method: (§1)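 Human cancer cell lines in 384-well plates, medium with 10% serum, drug for 72 h over a 256-fold dose range (nine 2-fold or five 4-fold steps up to the top dose). Adherent lines were fixed and stained with the nucleic acid dye Syto60, suspension lines read with resazurin; signal relative to control wells, capped at 0 and 100%. One two-parameter sigmoid per drug and line, fitted in a mixed model over all curves with the slope shared within a line.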

[2] = compound: COc1cc(C(=O)NC2CCN(C)CC2)ccc1Nc1ncc2c(n1)N(C1CCCC1)C(C)CC(=O)N2C [NPK76-II-72-1]; conditions: top dose 10.24 µM; top dose inferred
Method: as §1

[3] = compound: COc1cc([C@@H]2c3cc4c(cc3[C@@H](O[C@@H]3O[C@@H]5CO[C@@H](C)O[C@H]5[C@H](O)[C@H]3O)[C@H]3COC(=O)[C@H]23)OCO4)cc(OC)c1O [Etoposide]; conditions: top dose 16 µM
Method: as §1

[4] = compound: COc1ccc(C(=O)CC2(O)C(=O)Nc3c(Cl)ccc(Cl)c32)cc1 [YK 4-279]; conditions: top dose 10 µM
Method: as §1

[5] = compound: Cc1ccc2nc(NCCN)c3ncc(C)n3c2c1 [BMS-345541]; conditions: top dose 16 µM
Method: as §1

[6] = compound: NC(=O)Nc1cc(-c2cccc(F)c2)sc1C(=O)N[C@H]1CCCNC1 [AZD7762]; conditions: top dose 2 µM
Method: as §1

[7] = compound: O=C(O)c1ccc(-c2c[nH]c3ncc(-c4ccccc4)cc23)cc1C1CCCC1 [GSK-650394]; conditions: top dose 16 µM; top dose inferred
Method: as §1

[8] = compound: Oc1nc(-c2ccc(C(F)(F)F)cc2)nc2c1CSCC2 [XAV 939]; conditions: top dose 5 µM; top dose inferred
Method: as §1

Row | Cell Line | AUC [1] | IC50 [1] | AUC [2] | IC50 [2] | AUC [3] | IC50 [3] | AUC [4] | IC50 [4] | AUC [5] | IC50 [5] | AUC [6] | IC50 [6] | AUC [7] | IC50 [7] | AUC [8] | IC50 [8]
1 | NCI-H1581 (large cell lung carcinoma, semi-adherent) | 0.984 | > 8 µM | 0.785 | 4 µM | 0.935 | > 16 µM | 0.612 | 1.24 µM | 0.896 | > 16 µM | 0.871 | 1630 nM | 0.987 | > 16 µM | 0.975 | > 5 µM
2 | NCI-H1623 (lung adenocarcinoma, adherent) | 0.969 | > 8 µM | 0.976 | > 10.2 µM | 0.794 | 9.24 µM | 0.94 | > 10 µM | 0.954 | > 16 µM | 0.849 | > 2000 nM | 0.981 | > 16 µM | 0.961 | > 5 µM
3 | NCI-H1648 (lung adenocarcinoma, adherent) | 0.883 | > 8 µM | 0.854 | 8.86 µM | 0.847 | 12.9 µM | 0.663 | 1.83 µM | 0.856 | 14.2 µM | 0.894 | > 2000 nM | 0.9 | > 16 µM | 0.956 | > 5 µM
4 | NCI-H1651 (lung adenocarcinoma, adherent) | 0.901 | > 8 µM | 0.979 | > 10.2 µM | 0.805 | 8.87 µM | 0.752 | 3.56 µM | 0.98 | > 16 µM | 0.819 | 1250 nM | 0.828 | 10.9 µM | 0.978 | > 5 µM
5 | NCI-H1666 (lung adenocarcinoma, semi-adherent) | 0.987 | > 8 µM | 0.976 | > 10.2 µM | 0.982 | > 16 µM | 0.846 | 8.39 µM | 0.911 | > 16 µM | 0.96 | > 2000 nM | 0.986 | > 16 µM | 0.869 | > 5 µM
6 | NCI-H1688 (small cell lung carcinoma, adherent) | 0.981 | > 8 µM | 0.628 | 1.5 µM | 0.825 | 11 µM | 0.895 | > 10 µM | 0.838 | 12.4 µM | 0.891 | > 2000 nM | 0.98 | > 16 µM | 0.981 | > 5 µM
7 | NCI-H1693 (lung adenocarcinoma, adherent) | 0.944 | > 8 µM | 0.977 | > 10.2 µM | 0.861 | > 16 µM | 0.915 | > 10 µM | 0.955 | > 16 µM | 0.723 | 805 nM | 0.941 | > 16 µM | 0.851 | > 5 µM
8 | NCI-H1694 (small cell lung carcinoma, suspension) | 0.987 | > 8 µM | 0.892 | > 10.2 µM | 0.566 | 1.52 µM | 0.903 | > 10 µM | 0.811 | 8.4 µM | 0.801 | 973 nM | 0.969 | > 16 µM | 0.984 | > 5 µM
9 | NCI-H1755 (lung adenocarcinoma, adherent) | 0.983 | > 8 µM | 0.824 | 7.39 µM | 0.9 | > 16 µM | 0.766 | 4.27 µM | 0.929 | > 16 µM | 0.637 | 319 nM | 0.975 | > 16 µM | 0.936 | > 5 µM
10 | NCI-H1770 (non-small cell lung carcinoma, suspension) | 0.992 | > 8 µM | 0.8 | 4.24 µM | 0.677 | 2.91 µM | 0.877 | 7.96 µM | 0.941 | > 16 µM | 0.991 | > 2000 nM | 0.663 | 2.67 µM | 0.989 | > 5 µM
11 | NCI-H1781 (lung adenocarcinoma, adherent) | 0.982 | > 8 µM | 0.989 | > 10.2 µM | 0.401 | 0.536 µM | 0.863 | 8.65 µM | 0.976 | > 16 µM | 0.753 | 669 nM | 0.861 | 13.5 µM | 0.974 | > 5 µM
12 | NCI-H1792 (lung adenocarcinoma, adherent) | 0.892 | 7.81 µM | 0.97 | > 10.2 µM | 0.883 | 14.2 µM | 0.687 | 1.96 µM | 0.818 | 7.88 µM | 0.83 | 1090 nM | 0.879 | 13.7 µM | 0.953 | > 5 µM
13 | NCI-H1836 (small cell lung carcinoma, suspension) | 0.972 | > 8 µM | 0.978 | > 10.2 µM | 0.928 | > 16 µM | 0.986 | > 10 µM | 0.883 | > 16 µM | 0.956 | > 2000 nM | 0.964 | > 16 µM | 0.986 | > 5 µM
14 | NCI-H1838 (lung adenocarcinoma, adherent) | 0.985 | > 8 µM | 0.987 | > 10.2 µM | 0.986 | > 16 µM | 0.973 | > 10 µM | 0.949 | > 16 µM | 0.871 | > 2000 nM | 0.984 | > 16 µM | 0.97 | > 5 µM

A lower IC50 marks a more sensitive line; where the fit passes the top or lowest dose, that dose stands as a limit. AUC is the area under the same curve over the 256-fold range up to the top dose, as a fraction; it is 1 without any effect and falls as sensitivity rises. For some assays here: Where the top dose is marked as inferred, it was calculated from the reported fits.
